# Data as given in the supplement of paper PMC8728848.
# This is one part of the list.
# Legend:
# Experiment in all cases: glycan array binding signal (z-score within array); higher = stronger binding
# Conditions in all cases: glycan notation: IUPAC condensed, linker removed
# [1] = biological target: GlcNAc(b1-4)GlcNAc(b1-4)GlcNAc(b1-4)GlcNAc(b1-4)GlcNAc
# Summary of the method: (§1)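 Negative Z-scores can be read as non-binding. The Z-score is calculated within each array and then averaged across arrays of one protein sequence at different concentrations or buffers and across linkers. Arrays, 3228 in all, were curated from the Consortium for Functional Glycomics database and kept only where the protein sequence was available.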
# [2] = biological target: GlcNAc(b1-4)GlcNAc(b1-4)GlcNAc(b1-4)GlcNAc(b1-4)GlcNAc(b1-4)GlcNAc
# Summary of the method: as §1
# [3] = biological target: GlcNAc(b1-4)[GlcNAc(b1-6)]GalNAc
# Summary of the method: as §1
# [4] = biological target: GlcNAc(b1-6)Gal(b1-4)GlcNAc
# Summary of the method: as §1
# GlcNAc(b1-6)GalNAc = biological target: GlcNAc(b1-6)GalNAc
# Summary of the method: as §1
# [5] = biological target: GlcNAc6S(b1-3)Gal(b1-4)GlcNAc
# Summary of the method: as §1
# Kdn(a2-3)Gal(b1-3)GalNAc = biological target: Kdn(a2-3)Gal(b1-3)GalNAc
# Summary of the method: as §1
# Kdn(a2-3)Gal(b1-3)GlcNAc = biological target: Kdn(a2-3)Gal(b1-3)GlcNAc
# Summary of the method: as §1
# Kdn(a2-3)Gal(b1-4)Glc = biological target: Kdn(a2-3)Gal(b1-4)Glc
# Summary of the method: as §1
# Kdn(a2-3)Gal(b1-4)GlcNAc = biological target: Kdn(a2-3)Gal(b1-4)GlcNAc
# Summary of the method: as §1
# [6] = biological target: Kdn(a2-3)Gal(b1-4)[Fuc(a1-3)]GlcNAc
# Summary of the method: as §1
# Kdn(a2-6)Gal(b1-4)GlcNAc = biological target: Kdn(a2-6)Gal(b1-4)GlcNAc
# Summary of the method: as §1
# [7] = biological target: Man(a1-2)Man(a1-2)Man(a1-3)Man
# Summary of the method: as §1
# [8] = biological target: Man(a1-2)Man(a1-2)Man(a1-6)[Man(a1-3)]Man
# Summary of the method: as §1
# Man(a1-2)Man(a1-3)Man = biological target: Man(a1-2)Man(a1-3)Man
# Summary of the method: as §1
# [9] = biological target: Man(a1-2)Man(a1-3)[Man(a1-2)Man(a1-6)]Man
# Summary of the method: as §1
# [10] = biological target: Man(a1-2)Man(a1-3)[Man(a1-2)Man(a1-6)]Man(a1-6)[Man(a1-2)Man(a1-2)Man(a1-3)]Man
# Summary of the method: as §1
# [11] = biological target: Man(a1-2)Man(a1-3)[Man(a1-2)Man(a1-6)]Man(a1-6)[Man(a1-2)Man(a1-2)Man(a1-3)]Man(b1-4)GlcNAc(b1-4)GlcNAc
# Summary of the method: as §1
# [12] = biological target: Man(a1-2)Man(a1-3)[Man(a1-6)]Man(a1-6)[Man(a1-2)Man(a1-3)]Man(b1-4)GlcNAc(b1-4)GlcNAc
# Summary of the method: as §1
# [13] = biological target: Man(a1-2)Man(a1-6)[Man(a1-3)]Man(a1-6)[Man(a1-2)Man(a1-2)Man(a1-3)]Man
# Summary of the method: as §1
# [14] = biological target: Man(a1-2)Man(a1-6)[Man(a1-3)]Man(a1-6)[Man(a1-2)Man(a1-2)Man(a1-3)]Man(b1-4)GlcNAc(b1-4)GlcNAc
# Summary of the method: as §1
# Man(a1-3)[Man(a1-6)]Man = biological target: Man(a1-3)[Man(a1-6)]Man
# Summary of the method: as §1
# [15] = biological target: Man(a1-3)[Man(a1-6)]Man(a1-6)[Man(a1-2)Man(a1-3)]Man(b1-4)GlcNAc(b1-4)GlcNAc
# Summary of the method: as §1
# [16] = biological target: Man(a1-3)[Man(a1-6)]Man(a1-6)[Man(a1-3)]Man
# Summary of the method: as §1
# [17] = biological target: Man(a1-3)[Man(a1-6)]Man(a1-6)[Man(a1-3)]Man(b1-4)GlcNAc(b1-4)GlcNAc
# Summary of the method: as §1
# [18] = biological target: Man(a1-3)[Man(a1-6)]Man(b1-4)GlcNAc(b1-4)GlcNAc
# Summary of the method: as §1
# [19] = biological target: Man(a1-3)[Man(a1-6)]Man(b1-4)GlcNAc(b1-4)[Fuc(a1-6)]GlcNAc
# Summary of the method: as §1
# Man(a1-6)Man = biological target: Man(a1-6)Man
# Summary of the method: as §1
# Man(b1-4)GlcNAc = biological target: Man(b1-4)GlcNAc
# Summary of the method: as §1
# MurNAc(b1-4)GlcNAc = biological target: MurNAc(b1-4)GlcNAc
# Summary of the method: as §1
# Neu5Ac(a2-3)Gal = biological target: Neu5Ac(a2-3)Gal
# Summary of the method: as §1
# [20] = biological target: Neu5Ac(a2-3)Gal(b1-3)GalNAc
# Summary of the method: as §1
# [21] = biological target: Neu5Ac(a2-3)Gal(b1-3)GalNAc(b1-3)Gal(a1-4)Gal(b1-4)Glc
# Summary of the method: as §1
# [22] = biological target: Neu5Ac(a2-3)Gal(b1-3)GalNAc(b1-4)[Neu5Ac(a2-3)]Gal(b1-4)Glc
# Summary of the method: as §1
# [23] = biological target: Neu5Ac(a2-3)Gal(b1-3)GalNAc(b1-4)[Neu5Ac(a2-8)Neu5Ac(a2-3)]Gal(b1-4)Glc
# Summary of the method: as §1
# [24] = biological target: Neu5Ac(a2-3)Gal(b1-3)GalNAc6S
# Summary of the method: as §1
# [25] = biological target: Neu5Ac(a2-3)Gal(b1-3)GlcNAc
# Summary of the method: as §1
# [26] = biological target: Neu5Ac(a2-3)Gal(b1-3)GlcNAc(b1-2)Man
# Summary of the method: as §1
# [27] = biological target: Neu5Ac(a2-3)Gal(b1-3)GlcNAc(b1-2)Man(a1-3)[GlcNAc(b1-4)][Neu5Ac(a2-3)Gal(b1-3)GlcNAc(b1-2)Man(a1-6)]Man(b1-4)GlcNAc(b1-4)GlcNAc
# Summary of the method: as §1
# [28] = biological target: Neu5Ac(a2-3)Gal(b1-3)GlcNAc(b1-2)Man(a1-3)[Neu5Ac(a2-3)Gal(b1-3)GlcNAc(b1-2)Man(a1-6)]Man(b1-4)GlcNAc(b1-4)GlcNAc
# Summary of the method: as §1
# [29] = biological target: Neu5Ac(a2-3)Gal(b1-3)GlcNAc(b1-3)Gal(b1-3)GlcNAc
# Summary of the method: as §1
# [30] = biological target: Neu5Ac(a2-3)Gal(b1-3)GlcNAc(b1-3)Gal(b1-4)GlcNAc
# Summary of the method: as §1
# [31] = biological target: Neu5Ac(a2-3)Gal(b1-3)GlcNAc(b1-3)GalNAc
# Summary of the method: as §1
# [32] = biological target: Neu5Ac(a2-3)Gal(b1-3)GlcNAc(b1-4)Gal(b1-4)Glc
# Summary of the method: as §1
# [33] = biological target: Neu5Ac(a2-3)Gal(b1-3)GlcNAc(b1-6)GalNAc
# Summary of the method: as §1
binder,measurement,setting,value
"AT5G01260(PC)(40) (Arabidopsis thaliana), Q9LFB0 (protein) MIGIGRTLTSSSPSKIILEDLPPGIYRYGTEIFTSVPRKTFHHIKFLRLDSAQSSRILKPVPLRSSSIKDSQVNVEDEEIEASNKTVRVRFQLRKECVFGEHFFIVGDDPVFGGLWDPETALPLNWSDGNVWTVDLDLPVGRLVEFKLLLKAQTGEILWQPGPNRALETWETNKTIRICEDWDNADLQMMIEEDFVPYTNISSIGSEDEDEVLGSVQQNSSVVAVENAGYVSDESAQNSSFSIQSEKTMEPSNGALTAREVIKEAMFTEEESPVLVPGLIPLSDLDNEQVEVINEGKAETFPEVDKKQEPKAERNKKAKVKAISLFEKSEQEAVKSVEQRQYNAVEEEQQRLETEPLGTPDVLFENDIQWGRRTLYKLLSNFRLF",glycan array binding signal (z-score),[1],-0.693
same,glycan array binding signal (z-score),[2],-0.319
same,glycan array binding signal (z-score),[3],0.541
same,glycan array binding signal (z-score),[4],-0.662
same,glycan array binding signal (z-score),GlcNAc(b1-6)GalNAc,0.069
same,glycan array binding signal (z-score),[5],1.26
same,glycan array binding signal (z-score),Kdn(a2-3)Gal(b1-3)GalNAc,-0.723
same,glycan array binding signal (z-score),Kdn(a2-3)Gal(b1-3)GlcNAc,-0.457
same,glycan array binding signal (z-score),Kdn(a2-3)Gal(b1-4)Glc,-0.386
same,glycan array binding signal (z-score),Kdn(a2-3)Gal(b1-4)GlcNAc,-0.013
same,glycan array binding signal (z-score),[6],-0.372
same,glycan array binding signal (z-score),Kdn(a2-6)Gal(b1-4)GlcNAc,0.202
same,glycan array binding signal (z-score),[7],-0.288
same,glycan array binding signal (z-score),[8],0.803
same,glycan array binding signal (z-score),Man(a1-2)Man(a1-3)Man,-0.013
same,glycan array binding signal (z-score),[9],-0.656
same,glycan array binding signal (z-score),[10],0.413
same,glycan array binding signal (z-score),[11],-0.508
same,glycan array binding signal (z-score),[12],0.449
same,glycan array binding signal (z-score),[13],-0.458
same,glycan array binding signal (z-score),[14],-0.074
same,glycan array binding signal (z-score),Man(a1-3)[Man(a1-6)]Man,-0.097
same,glycan array binding signal (z-score),[15],-0.599
same,glycan array binding signal (z-score),[16],-0.108
same,glycan array binding signal (z-score),[17],0.05
same,glycan array binding signal (z-score),[18],0.055
same,glycan array binding signal (z-score),[19],0.3
same,glycan array binding signal (z-score),Man(a1-6)Man,1.03
same,glycan array binding signal (z-score),Man(b1-4)GlcNAc,0.028
same,glycan array binding signal (z-score),MurNAc(b1-4)GlcNAc,-0.149
same,glycan array binding signal (z-score),Neu5Ac(a2-3)Gal,-0.106
same,glycan array binding signal (z-score),[20],0.097
same,glycan array binding signal (z-score),[21],0.127
same,glycan array binding signal (z-score),[22],-0.208
same,glycan array binding signal (z-score),[23],-0.847
same,glycan array binding signal (z-score),[24],-0.292
same,glycan array binding signal (z-score),[25],-0.315
same,glycan array binding signal (z-score),[26],-0.011
same,glycan array binding signal (z-score),[27],-0.35
same,glycan array binding signal (z-score),[28],-0.054
same,glycan array binding signal (z-score),[29],-0.611
same,glycan array binding signal (z-score),[30],-0.721
same,glycan array binding signal (z-score),[31],-0.438
same,glycan array binding signal (z-score),[32],-0.356
same,glycan array binding signal (z-score),[33],-0.384
